The values that follow come from the supplement of paper PMC7826260.

The other results are listed elsewhere or left out. Cleavage of a single-stranded DNA pool by Rep nickase domains was read by sequencing (3 µM enzyme, 1 h, 37 °C); shown is the middle of each 90-letter strand. Numbers give uncut DNA relative to the enzyme-free pool, as log2; strong cutting gives strongly negative numbers. There is no active / inactive call. Because reads are shares of a total, they shift together, so uncut sequences can rise above 0 when many others are cut.

The assay concerns T1, Rep nickase domain of tomato golden mosaic virus.
T1 sequence (residues 1-124, tag not shown): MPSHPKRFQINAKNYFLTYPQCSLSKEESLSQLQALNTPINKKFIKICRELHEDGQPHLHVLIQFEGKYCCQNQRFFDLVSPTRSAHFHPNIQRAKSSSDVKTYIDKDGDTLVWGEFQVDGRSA
The experiment in a line: uncleaved DNA left, log2 of reads against the no-enzyme library (log2 ratio); higher = less cleavage (more negative = more Rep cleavage of the k-mer); sequences stand for … in CTCGTCCG…ACCGGAGA
On the procedure: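 A pool of 90-nt single-stranded DNAs with seven random bases just before the constant AC of the nick site (name = the seven bases) was cut by 3 µM recombinant His6-SUMO-tagged Rep nickase domain (300 nM DNA, 50 mM HEPES pH 8.0, 50 mM NaCl, 1 mM MnCl2, 1 h, 37 °C, three replicates). Uncut DNA was amplified and sequenced.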
In the case of TATATTT, the “uncleaved DNA left (log2)” value is -0.157.

In the case of TCATTGC, the “uncleaved DNA left (log2)” value is -0.237.

As for TATAAGA, the “uncleaved DNA left (log2)” value stood at 0.0401.

With GAGCGTA, the “uncleaved DNA left (log2)” value is -0.0774.

CATATAG: the “uncleaved DNA left (log2)” value is 0.0501.

Turning to GCTCGAG, the “uncleaved DNA left (log2)” value was -0.0214.

Regarding GGCCTTC, the “uncleaved DNA left (log2)” value was -0.166.

Turning to TTGTAGA, the “uncleaved DNA left (log2)” value was -0.0172.

Regarding CATAACA, the “uncleaved DNA left (log2)” value was -0.0468.

With AAGAAAT, the “uncleaved DNA left (log2)” value is -0.0458.

As to AAATTGG, the “uncleaved DNA left (log2)” value came out at 0.0164.

For the sequence GCTGATT, the “uncleaved DNA left (log2)” value came to 0.0379.

With TTATGGT, the “uncleaved DNA left (log2)” value is -0.111.

GCAGGTG: the “uncleaved DNA left (log2)” value worked out at 0.0735.

Consider AATCCGC, for which the “uncleaved DNA left (log2)” value is -0.243.

With TGTGACA, the “uncleaved DNA left (log2)” value is 0.0284.

In the case of CTAGGGG, the “uncleaved DNA left (log2)” value came to 0.0908.

For TAACGAG, the “uncleaved DNA left (log2)” value is -0.148.

On to GCAGATC, for which the “uncleaved DNA left (log2)” value stood at 0.156.

Take GCGCGCT: the “uncleaved DNA left (log2)” value came to 0.0154.

For the sequence CACCGCC, the “uncleaved DNA left (log2)” value was determined as 0.0325.

As to TGGTTCT, the “uncleaved DNA left (log2)” value is -0.114.

On to ACTAAGG, for which the “uncleaved DNA left (log2)” value amounted to 0.132.

On to TCTTAGG, for which the “uncleaved DNA left (log2)” value turned out to be 0.178.

As to ATCCGAT, the “uncleaved DNA left (log2)” value is -0.0335.

For the sequence TTTTCCT, the “uncleaved DNA left (log2)” value was -0.148.

With AGATCTC, the “uncleaved DNA left (log2)” value worked out at 0.0599.

For the sequence CTTCTGG, the “uncleaved DNA left (log2)” value is 0.0433.

CACCAGA: the “uncleaved DNA left (log2)” value was -0.127.

For ACCAGTT, the “uncleaved DNA left (log2)” value is -0.04.

TGACACG: the “uncleaved DNA left (log2)” value is 0.0453.

In the case of GTAGCTC, the “uncleaved DNA left (log2)” value amounted to 0.00438.

Turning to AACCTGT, the “uncleaved DNA left (log2)” value was -0.0403.

Turning to AGCTGGT, the “uncleaved DNA left (log2)” value stood at 0.1.

As for AATCAAA, the “uncleaved DNA left (log2)” value came out at 0.0922.

Regarding AGATTTT, the “uncleaved DNA left (log2)” value was -0.123.

GTGGCGG: the “uncleaved DNA left (log2)” value was determined as 0.0853.

Regarding ACTGTAC, the “uncleaved DNA left (log2)” value amounted to 0.0639.

For CACCCGT, the “uncleaved DNA left (log2)” value is -0.209.

For the sequence TATTTGA, the “uncleaved DNA left (log2)” value was 0.0109.
